For one test, the target named is T1, TDRD1 (mouse) (UniProt Q99MV1).
T1 sequence: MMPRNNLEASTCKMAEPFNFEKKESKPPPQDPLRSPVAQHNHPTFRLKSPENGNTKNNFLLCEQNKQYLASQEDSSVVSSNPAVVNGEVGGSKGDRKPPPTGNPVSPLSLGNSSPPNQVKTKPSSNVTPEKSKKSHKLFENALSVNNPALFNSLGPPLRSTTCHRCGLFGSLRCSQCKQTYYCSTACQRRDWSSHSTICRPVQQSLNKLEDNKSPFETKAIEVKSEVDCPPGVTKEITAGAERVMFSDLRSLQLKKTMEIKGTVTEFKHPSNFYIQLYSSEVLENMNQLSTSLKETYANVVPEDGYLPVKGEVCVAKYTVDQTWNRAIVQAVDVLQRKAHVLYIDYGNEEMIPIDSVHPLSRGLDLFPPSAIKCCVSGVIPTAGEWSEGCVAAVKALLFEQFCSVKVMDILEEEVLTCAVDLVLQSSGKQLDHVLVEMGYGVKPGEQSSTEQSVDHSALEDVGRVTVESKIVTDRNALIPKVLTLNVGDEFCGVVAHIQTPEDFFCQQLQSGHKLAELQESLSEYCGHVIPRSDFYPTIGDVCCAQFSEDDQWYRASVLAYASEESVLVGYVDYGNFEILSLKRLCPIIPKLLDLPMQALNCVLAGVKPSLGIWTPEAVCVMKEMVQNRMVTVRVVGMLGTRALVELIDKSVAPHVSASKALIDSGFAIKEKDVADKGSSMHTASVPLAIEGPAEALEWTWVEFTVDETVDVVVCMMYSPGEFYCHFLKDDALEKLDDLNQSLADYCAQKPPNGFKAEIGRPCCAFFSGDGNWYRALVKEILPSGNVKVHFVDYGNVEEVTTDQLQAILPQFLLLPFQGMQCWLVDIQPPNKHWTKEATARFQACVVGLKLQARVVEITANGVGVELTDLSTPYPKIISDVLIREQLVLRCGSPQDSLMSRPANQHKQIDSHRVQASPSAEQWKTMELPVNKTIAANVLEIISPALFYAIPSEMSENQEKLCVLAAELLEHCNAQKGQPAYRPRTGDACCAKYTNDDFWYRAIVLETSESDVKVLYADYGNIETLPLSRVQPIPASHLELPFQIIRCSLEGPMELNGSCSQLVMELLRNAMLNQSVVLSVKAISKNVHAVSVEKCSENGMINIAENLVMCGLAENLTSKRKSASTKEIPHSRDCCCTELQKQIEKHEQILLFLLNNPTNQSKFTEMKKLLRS
Nature of the test: co-IP; 293T cells transiently transfected with tagged mouse proteins; lysis in 150 mM NaCl, 50 mM Tris-HCl pH 7.4, 1% Triton X-100, 1 mM EDTA; Protein A/G agarose beads and antibodies overnight at 4 °C; washes with 300 mM NaCl; Western blot for Flag, HA, GFP; some panels with the methyltransferase inhibitor MTA. Background: Immunoblotting shows a protein as a band on a membrane.

The chains behind the UniProt entries cited, without tags or fusion partners.
UniProt Q8CDG1: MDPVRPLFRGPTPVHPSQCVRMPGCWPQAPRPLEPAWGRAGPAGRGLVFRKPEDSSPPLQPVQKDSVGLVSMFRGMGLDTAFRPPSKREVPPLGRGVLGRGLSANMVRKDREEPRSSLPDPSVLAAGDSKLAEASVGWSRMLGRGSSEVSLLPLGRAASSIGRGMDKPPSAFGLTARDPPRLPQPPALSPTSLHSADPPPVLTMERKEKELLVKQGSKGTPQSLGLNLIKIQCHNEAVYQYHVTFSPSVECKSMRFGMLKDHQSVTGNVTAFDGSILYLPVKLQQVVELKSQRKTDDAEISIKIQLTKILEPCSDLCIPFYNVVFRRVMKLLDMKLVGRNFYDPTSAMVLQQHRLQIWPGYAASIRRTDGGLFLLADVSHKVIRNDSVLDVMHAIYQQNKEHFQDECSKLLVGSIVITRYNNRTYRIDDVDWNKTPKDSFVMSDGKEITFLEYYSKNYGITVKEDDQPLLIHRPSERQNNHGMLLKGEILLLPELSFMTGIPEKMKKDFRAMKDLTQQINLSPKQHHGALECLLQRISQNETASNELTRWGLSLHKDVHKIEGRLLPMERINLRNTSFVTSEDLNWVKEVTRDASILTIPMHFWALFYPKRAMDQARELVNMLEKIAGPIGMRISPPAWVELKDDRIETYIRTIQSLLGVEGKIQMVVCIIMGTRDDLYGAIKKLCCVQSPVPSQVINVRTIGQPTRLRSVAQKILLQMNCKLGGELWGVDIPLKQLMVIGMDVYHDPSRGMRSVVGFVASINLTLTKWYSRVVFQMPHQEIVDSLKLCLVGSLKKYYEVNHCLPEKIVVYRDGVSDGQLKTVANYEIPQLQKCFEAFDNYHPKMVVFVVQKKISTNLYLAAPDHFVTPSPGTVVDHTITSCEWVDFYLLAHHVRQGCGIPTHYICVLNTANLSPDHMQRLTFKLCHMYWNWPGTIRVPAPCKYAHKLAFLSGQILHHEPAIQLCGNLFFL

The target of another test is T2, PNLDC1 (mouse), B2RXZ1.
T2 chain: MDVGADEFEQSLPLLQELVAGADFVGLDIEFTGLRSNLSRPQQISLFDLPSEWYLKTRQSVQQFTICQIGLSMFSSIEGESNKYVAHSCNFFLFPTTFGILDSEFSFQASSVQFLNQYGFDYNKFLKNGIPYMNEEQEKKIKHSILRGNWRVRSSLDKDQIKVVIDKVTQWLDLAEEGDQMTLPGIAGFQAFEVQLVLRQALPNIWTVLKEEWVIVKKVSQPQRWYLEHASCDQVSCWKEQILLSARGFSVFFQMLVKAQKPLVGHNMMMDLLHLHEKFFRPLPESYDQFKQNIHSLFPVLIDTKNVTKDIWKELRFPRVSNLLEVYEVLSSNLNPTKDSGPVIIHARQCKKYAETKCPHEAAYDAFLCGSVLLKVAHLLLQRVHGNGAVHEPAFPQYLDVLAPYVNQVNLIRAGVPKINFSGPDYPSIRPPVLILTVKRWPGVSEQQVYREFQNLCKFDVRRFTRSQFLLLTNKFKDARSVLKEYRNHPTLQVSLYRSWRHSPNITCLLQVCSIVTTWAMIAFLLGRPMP
Described as above. The conditions noted are these: remark: other sources report otherwise.

Test [1] deals with PIWIL1 (endogenous, mouse testis) (mouse (endogenous in testis)) (UniProt Q9JMB7). Briefly: co-IP; PIWIL1 and PIWIL2 IP in control (WT) and Tdrd1^c-3GS adult testes; PIWIL2, PIWIL1 and TDRD1 detected by Western blot.
Test [2] concerns the target PIWIL2 (endogenous, mouse testis) (mouse (endogenous in testis)) (UniProt Q8CDG1). The description is as above.
Test [3] has the same target. Briefly: co-IP; adult mouse testis lysates with or without RNase A (250 μg/mL, then 125 μg/mL more); lysis buffer A (150 mM KCl, 25 mM Tris-HCl pH 7.4, 0.5% NP-40, 5 mM EDTA, 0.5 mM DTT); IP with PIWIL2, ASZ1 or TDRD1 antibody; Western blot.

These are yes or no findings as the source states them, for the method shown. In cells and extracts the contact can be indirect. Some entries that bind do so weakly or less than the wild type.

B1: PIWIL1 PIWI domain (domain or fragment, UniProt Q9JMB7 556-848)
chain: IVVCLLSSNRKDKYDAIKKYLCTDCPTPSQCVVARTLGKQQTVMAIATKIALQMNCKMGGELWRVDMPLKLAMIVGIDCYHDTTAGRRSIAGFVASINEGMTRWFSRCVFQDRGQELVDGLKVCLQAALRAWSGCNEYMPSRVIVYRDGVGDGQLKTLVNYEVPQFLDCLKSVGRGYNPRLTVIVVKKRVNARFFAQSGGRLQNPLPGTVIDVEVTRPEWYDFFIVSQAVRSGSVSPTHYNVIYDSSGLKPDHIQRLTYKLCHVYYNWPGVIRVPAPCQYAHKLAFLVGQSIH
Turning to B1, in the test with TDRD1 (mouse), the binding result is listed as “binds”.

B2: PIWIL1, Q9JMB7 1-862 (protein)
chain: MTGRARARARGRARGQETVQHVGAAASQQPGYIPPRPQQSPTEGDLVGRGRQRGMVVGATSKSQELQISAGFQELSLAERGGRRRDFHDLGVNTRQNLDHVKESKTGSSGIIVKLSTNHFRLTSRPQWALYQYHIDYNPLMEARRLRSALLFQHEDLIGRCHAFDGTILFLPKRLQHKVTEVFSQTRNGEHVRITITLTNELPPTSPTCLQFYNIIFRRLLKIMNLQQIGRNYYNPSDPIDIPNHRLVIWPGFTTSILQYENNIMLCTDVSHKVLRSETVLDFMFNLYQQTEEHKFQEQVSKELIGLIVLTKYNNKTYRVDDIDWDQNPKSTFKKADGSEVSFLEYYRKQYNQEITDLKQPVLVSQPKRRRGPGGTLPGPAMLIPELCYLTGLTDKMRNDFNVMKDLAVHTRLTPEQRQREVGRLIDYIHKDDNVQRELRDWGLSFDSNLLSFSGRILQSEKIHQGGKTFDYNPQFADWSKETRGAPLISVKPLDNWLLIYTRRNYEAANSLIQNLFKVTPAMGIQMKKAIMIEVDDRTEAYLRALQQKVTSDTQIVVCLLSSNRKDKYDAIKKYLCTDCPTPSQCVVARTLGKQQTVMAIATKIALQMNCKMGGELWRVDMPLKLAMIVGIDCYHDTTAGRRSIAGFVASINEGMTRWFSRCVFQDRGQELVDGLKVCLQAALRAWSGCNEYMPSRVIVYRDGVGDGQLKTLVNYEVPQFLDCLKSVGRGYNPRLTVIVVKKRVNARFFAQSGGRLQNPLPGTVIDVEVTRPEWYDFFIVSQAVRSGSVSPTHYNVIYDSSGLKPDHIQRLTYKLCHVYYNWPGVIRVPAPCQYAHKLAFLVGQSIHREPNLSLSNRLYYL
In the case of B2, in the test with PNLDC1 (mouse), B2RXZ1, the binding result is “no binding”.

B3: TDRD1 (endogenous, mouse testis) (protein, UniProt Q99MV1 1-1172)
chain: T1 sequence
In the case of B3, the binding entry in test [1], in test [2] and in test [3] was “binds” throughout.

For the origin of these results see PMC12624062.
